Experimental data as given in PubChem BioAssay AID624296 (National Center for Advancing Translational Sciences (NCATS), 2012).
About 9,900 (2.8%) of roughly 350,000 compounds were called active. This list was built around the results that the source calls inconclusive (neither active nor inactive); the mix of calls is not that of the screen. Calls come from the whole dose curve; as a rule, active = well fitted activation curve with a large enough effect; inconclusive = small, poorly fitted or top-dose-only effect; inactive = no such curve, though single readings can be large or run the other way. Potencies of inconclusive entries are left out as doubtful fits. Some structures have more than one record in an assay (separate samples or runs), and their calls can disagree.

assay: A quantitative high throughput screen for small molecules that induce DNA re-replication in MCF 10a normal breast cells.; note: nearly all actives have a fitted effect of over 50% in size; details: MCF 10A DNA re-replication, Hoechst nuclear intensity, 48 h; series mostly up to 46.1 µM
Potency is the fitted concentration of half-maximal effect; tags give direction and shape of the fitted curve.

Row | Compound | Potency
1 | O=C(CSc1nc2ccc(NC(=O)CSc3nnnn3Cc3ccccc3)cc2s1)Nc1ccccc1 | inconclusive [activator, partial curve, poor fit]
2 | CN1C(=O)C(=O)/C(=C(/O)c2ccccc2)C1c1ccc(Br)cc1 (stereo unspecified) | inconclusive [activator, partial curve, poor fit]
3 | NC(=S)NNC(=O)c1ccccc1Cl | inactive
4 | CC(C)CC(C(=O)OCC(=O)N1CCN(c2ccccc2)CC1)N1C(=O)c2ccccc2C1=O (stereo unspecified) | inactive
5 | O=C(CNS(=O)(=O)c1ccc(Cl)c(C(F)(F)F)c1)NC1CCCCCC1 | inactive
6 | CSc1ccc(CN2CCN(C(=O)c3ccc([N+](=O)[O-])cc3)CC2)cc1 | inconclusive [activator, single point]
7 | O=C(N/N=C/c1ccc(Br)s1)Nc1ccccc1 | inconclusive [activator, single point]
8 | Cc1ccc(NS(=O)(=O)c2cccc(C(=O)O)c2)c(C)c1 | inconclusive [activator, single point]
9 | O=C(Nc1ccc(Cl)cn1)c1cccc2ccccc12 | inconclusive [activator, single point]
10 | COc1ccc(-c2nc(N3CCC(C)CC3)[nH]c(=O)c2C#N)cc1 | active: 3.66 µM
11 | C[C@]12C=CC(=O)C=C1CCC1C2CC[C@@]2(C)C1CCC21OCCO1 (stereo partly specified) | inconclusive [activator, partial curve, poor fit]
12 | Brc1ccc(-c2csc3ncnc(-n4nnc5ccccc54)c23)cc1 | inconclusive [activator, full curve, poor fit]
13 | COc1ccc2nc(NC(=O)c3ccc4ncsc4c3)sc2c1 | active: 14.6 µM
14 | COc1ccc(-c2cc3cc4c(cc3cn2)OCO4)cc1 | inactive
15 | CC(=O)/C(CN1CCCCC1)=N\O | inconclusive [activator, partial curve, poor fit]
16 | CCCCN(C)CCC(=O)Nc1ccc2c(c1)CCC2 | inactive
17 | CCc1cccc(C)c1NC(=O)C1CC(=O)N(C2CCCC2)C1 (stereo unspecified) | inactive
18 | COc1ccc(C(=O)OCC(=O)NC(=O)NC2CCCC2)cc1OC | inactive
19 | O=C(COc1ccc(F)cc1Br)NCC1(N2CCCCC2)CCCCC1 | inconclusive [activator, single point]
20 | S=c1[nH]nc(-c2ccco2)n1/N=C/C(Cl)=C/c1ccccc1 | active: 7.31 µM
21 | O=C(Nc1ccccc1)c1nc[nH]c1C(=O)NCCCNC(=O)c1[nH]cnc1C(=O)Nc1ccccc1 | inconclusive [activator, full curve, poor fit]
22 | CCOC(=O)c1ccc(NC(=O)c2nc[nH]c2C(=O)NCCNC(=O)c2[nH]cnc2C(=O)Nc2ccc(C(=O)OCC)cc2)cc1 | inactive
23 | COCCOC(=O)c1[nH]c2c(c1C)C(=O)CC(c1ccco1)C2 (stereo unspecified) | active: 8.2 µM

Row | Compound | Potency
24 | N#CC(C#N)=C/C(C#N)=C(/N)N1CCN(c2ccc(Cl)cc2)CC1 | inconclusive [activator, partial curve, poor fit]
25 | Cc1cc(=O)oc2cc(NC(=O)COc3cccc(C(F)(F)F)c3)ccc12 | inconclusive [activator, single point]
26 | Cc1ccccc1NS(=O)(=O)c1ccc(C(=O)NCC(c2ccccc2)N(C)C)cc1 (stereo unspecified) | inconclusive [activator, full curve, poor fit]
27 | CCCCNC(=S)N/N=C/c1sccc1C | inactive
28 | Cc1nonc1CC(=O)NC1CCCc2c1cnn2-c1ccc(F)cc1F (stereo unspecified) | inactive
29 | COc1ccc(NC(=O)c2ccc(NC(=O)CN3CCC(C(N)=O)CC3)cc2)cc1 | inactive
30 | COc1ccc(CNC(=O)COC(=O)[C@H](Cc2c[nH]c3ccccc23)NC(=O)c2cccs2)cc1 | inconclusive [activator, single point]
31 | COc1ccc(CSCC(=O)Nc2ccc(S(=O)(=O)N3CCCCCC3)cc2)cc1 | inconclusive [activator, single point]
32 | Cc1cc(=O)oc2c(C(=O)/C=C\c3cccs3)c(O)ccc12 | inconclusive [activator, single point]
33 | O=C(O)CC(=O)Nc1ccccc1 | inconclusive [activator, single point]
34 | CCc1cccc(CC)c1NC(=O)C1SC(=Nc2ccccc2C)C(c2nc3ccccc3s2)=C1N (stereo unspecified) | inconclusive [activator, full curve, poor fit]
35 | CCCCNC(=S)N(C)/N=C/c1ccc(F)cc1 | inactive
36 | CC(=O)Nc1cccc(NC(=O)C2CCCN2C(=O)Nc2ccccc2C)c1 (stereo unspecified) | inconclusive [activator, partial curve]
37 | COCCn1c(=NC(=O)C2COc3ccccc3O2)sc2cc(S(N)(=O)=O)ccc21 (stereo unspecified) | inconclusive [activator, partial curve, poor fit]
38 | Cc1nc2ccccn2c1C(=O)N/N=C/c1cc(C)n(-c2ccc(Br)cc2)c1C | inconclusive [activator, partial curve, poor fit]
39 | Cc1cc(C)c2c(N)c(C(=O)N/N=C/c3cccnc3)sc2n1 | active: 16.4 µM
40 | Cc1ccc(S(=O)(=O)N2[C@@H](c3cccc(Cl)c3)C(C(=O)O)=CC[C@H]2c2ccc(C(C)C)cc2)cc1 | inconclusive [activator, single point]
41 | O=C(Nc1ccc2c(c1)OCO2)N1CCN(C/C=C/c2ccccc2)CC1 | inactive
42 | O=C(Nc1cccc2cccnc12)c1cccc([N+](=O)[O-])c1 | inactive
43 | CC(C)C(=O)Nc1cccc(-c2cnc3ccccc3n2)c1 | inactive
44 | Nc1c2ccccc2nc2ccccc12 | active: 18.4 µM
45 | Cc1ccc(NC(=O)c2nc[nH]c2C(=O)N[C@H](C)c2ccccc2)cc1 | inconclusive [activator, single point]
46 | C=CCC1(C(=O)NCCO)CCN(C(=O)OC(C)(C)C)CC1 | inconclusive [activator, full curve, poor fit]
